Experimental data taken from the supplement of paper PMC12355420.
Structures can show the parent of a compound that is named as a salt. The list shows a part of the results. No stated cut-off is given here; in the data, active = 0.5 or less and inactive = the rest. Repeats are few or missing, and single values can be far off.

What was measured:
Conditions in all cases: 50 µM; 24 h
[1] = test system: HeLa VPS33A reporter cells; experiment: relative cell viability (CellMask signal) vs DMSO (fraction of DMSO); higher = less cytotoxic;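 further: primary screen of an FDA-approved drug library in HeLa reporter cells in 96-well format, CellMask signal normalized to DMSO-treated wells set as 1, under 0.5 deemed highly cytotoxic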
[2] = test system: HeLa VPS33A R498W KI + HA-SDC1-FLAG; experiment: relative GAG core protein HA-SDC1 amount per cell number vs DMSO (fraction of DMSO); higher = more SDC1 (GAG core protein);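 further: HA-SDC1 level read out by In-Cell Western staining with an anti-HA antibody against the N-terminal tag, screening FDA-approved library drugs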
[3] = test system: HeLa VPS33A KO + NLuc-VPS33A R498W; experiment: relative mutant VPS33A R498W amount (NanoLuc luminescence) vs DMSO (fraction of DMSO); HeLa model of a glycosaminoglycan (GAG) storage disease; KI is knock-in and KO knock-out; SDC1 is syndecan 1; higher = higher mutant VPS33A level;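 further: screen of an FDA-approved drug library, NanoLuc luminescence read after lysing the treated cells, taken as a measure of mutant VPS33A protein stability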

CC(=O)OCC(=O)[C@@]12N=C(C)O[C@@H]1C[C@H]1[C@@H]3CCC4=CC(=O)C=C[C@]4(C)[C@H]3[C@@H](O)C[C@@]12C [Deflazacort]
relative cell viability [1]: 1.06
relative GAG core protein HA-SDC1 amount per cell number [2]: inactive: 0.897
relative mutant VPS33A R498W amount [3]: 1.05

Nc1nc(=O)c2c([nH]1)NCC(CNc1ccc(C(=O)N[C@@H](CCC(=O)O)C(=O)O)cc1)N2C=O (stereo not given in full) [Leucovorin Calcium]
relative cell viability [1]: 1.24
relative GAG core protein HA-SDC1 amount per cell number [2]: inactive: 1.3
relative mutant VPS33A R498W amount [3]: 1.04

Cc1cc(C)nc(NS(=O)(=O)c2ccc(N)cc2)n1 [Sulfamethazine]
relative cell viability [1]: 0.969
relative GAG core protein HA-SDC1 amount per cell number [2]: inactive: 0.942
relative mutant VPS33A R498W amount [3]: 1.55

CCNC(=O)[C@@H]1CCCN1C(=O)[C@H](CCCNC(=N)N)NC(=O)[C@H](CC(C)C)NC(=O)[C@@H](CC(C)C)NC(=O)[C@H](Cc1ccc(O)cc1)NC(=O)[C@H](CO)NC(=O)[C@H](Cc1c[nH]c2ccccc12)NC(=O)[C@H](Cc1c[nH]cn1)NC(=O)[C@@H]1CCC(=O)N1 [Leuprolide Acetate]
relative cell viability [1]: 1.01
relative GAG core protein HA-SDC1 amount per cell number [2]: inactive: 1.17
relative mutant VPS33A R498W amount [3]: 1.05

CCOCc1nc2c(N)nc3ccccc3c2n1CC(C)(C)O [Resiquimod (R-848)]
relative cell viability [1]: 1.32
relative GAG core protein HA-SDC1 amount per cell number [2]: inactive: 1.06
relative mutant VPS33A R498W amount [3]: 0.79

COc1cc(/C=C/C(=O)N2CCN(CC(=O)N3CCCC3)CC2)cc(OC)c1OC [Cinepazide maleate]
relative cell viability [1]: 1.12
relative GAG core protein HA-SDC1 amount per cell number [2]: inactive: 0.86
relative mutant VPS33A R498W amount [3]: 1.37

Cc1c(C(=O)Nc2ccc(N3C[C@@H](C)O[C@@H](C)C3)nc2)cccc1-c1ccc(OC(F)(F)F)cc1 [LDE225 Diphosphate]
relative cell viability [1]: 1.03
relative GAG core protein HA-SDC1 amount per cell number [2]: inactive: 0.773
relative mutant VPS33A R498W amount [3]: 0.485

OC[C@@H](O)[C@@H](O)[C@H](O)[C@H](O)CO [D-Mannitol]
relative cell viability [1]: 0.903
relative GAG core protein HA-SDC1 amount per cell number [2]: inactive: 0.874
relative mutant VPS33A R498W amount [3]: 1.44

COc1cc(NS(=O)(=O)c2ccc(N)cc2)nc(OC)n1 [Sulfadimethoxine]
relative cell viability [1]: 0.975
relative GAG core protein HA-SDC1 amount per cell number [2]: inactive: 0.807
relative mutant VPS33A R498W amount [3]: 1.4

Oc1cccc(O)c1O [Pyrogallol]
relative cell viability [1]: 1.04
relative GAG core protein HA-SDC1 amount per cell number [2]: inactive: 0.957
relative mutant VPS33A R498W amount [3]: 1.25

CC(C)=CCC/C(C)=C/CC/C(C)=C/CC/C(C)=C/CC1=C(C)C(=O)c2ccccc2C1=O [Menaquinone 4]
relative cell viability [1]: 0.983
relative GAG core protein HA-SDC1 amount per cell number [2]: inactive: 0.758
relative mutant VPS33A R498W amount [3]: 1.45

Oc1ccc(C2CNCCc3c2cc(O)c(O)c3Cl)cc1 (stereo not given) [Fenoldopam (mesylate)]
relative cell viability [1]: 0.913
relative GAG core protein HA-SDC1 amount per cell number [2]: inactive: 0.696
relative mutant VPS33A R498W amount [3]: 1.25

Cc1cc(O)c2c(c1)C(=O)c1cc(O)cc(O)c1C2=O [Emodin]
relative cell viability [1]: 0.998
relative GAG core protein HA-SDC1 amount per cell number [2]: inactive: 0.91
relative mutant VPS33A R498W amount [3]: 0.705

CC(C)CCCCC(=O)N[C@@H](CCN)C(=O)N[C@@H](CN[C@@H](CCN)C(=O)N[C@H]1CCNC(=O)[C@H]([C@@H](C)O)NC(=O)[C@H](CCN)NC(=O)[C@H](CCN)NC(=O)[C@H](CC(C)C)NC(=O)[C@@H](CC(C)C)NC(=O)[C@H](CCN)NC1=O)[C@@H](C)O.CCC(C)CCCCC(=O)N[C@@H](CCN)C(=O)N[C@@H](CN[C@@H](CCN)C(=O)N[C@H]1CCNC(=O)[C@H]([C@@H](C)O)NC(=O)[C@H](CCN)NC(=O)[C@H](CCN)NC(=O)[C@H](CC(C)C)NC(=O)[C@@H](CC(C)C)NC(=O)[C@H](CCN)NC1=O)[C@@H](C)O (stereo not given in full) [Colistin Sulfate]
relative cell viability [1]: 1.09
relative GAG core protein HA-SDC1 amount per cell number [2]: inactive: 0.998
relative mutant VPS33A R498W amount [3]: 0.973

COC(=O)c1ccc(O)cc1 [Methylparaben]
relative cell viability [1]: 0.994
relative GAG core protein HA-SDC1 amount per cell number [2]: inactive: 0.827
relative mutant VPS33A R498W amount [3]: 1.07
